In PubChem BioAssay AID493208 (National Center for Advancing Translational Sciences (NCATS), 2011):
Hit rate of the full screen: of about 44,000 compounds, about 340 (0.77%) were called active. Not shown: some 5% with an inconclusive outcome. Calls follow the shape of the dose curve; as a rule, active = well fitted inhibition curve with a large enough effect; inconclusive = small, poorly fitted or top-dose-only effect; inactive = flat fitted curve, though single readings scatter. Some of the results follow.

Experiment: Acumen qHTS Assay for Inhibitors of the mTORC1 Signaling Pathway in MEF (Tsc2-/-, p53-/-) Cells: Sytravon; also: nearly all actives have a fitted effect of over 50% in size
Conditions: phospho-rpS6 immunofluorescence/PI, 24 h; series mostly up to 38.3 µM; activity change, negative = inhibition: at the top concentration
From the text: NIH Molecular Libraries Probe Production Centers Network [MLPCN] NIH Chemical Genomics Center [NCGC] MLPCN Grant: NS059428-01 Assay Submitter (PI): Blenis, John; Hoffman, Greg; Harvard University NCGC Assay Overview: The mammalian target of rapamycin (mTOR) is an intracellular serine/threonine kinase Aberrant regulation of mTOR signaling plays a causative role in a number of human diseases, including cancer, benign tumors such as lymphangioleiomyomatosis (LAM) and Tuberous Sclerosis Complex (TSC), and metabolic diseases such as diabetes and obesity. This project aims to identify inhibitors of ribosomal protein S6 (rpS6) phosphorylation. The phosphorylation of rpS6 is a key event downstream of mTOR activation. The assay uses a phospho-specific antibody of phospho-rpS6 to detect inhibitors of mTOR activation. Mutations in the Tsc1 and Tsc2 genes are the underlying genetic lesions responsible for TSC, causing constitutive activation of the mTORC1 pathway and leading to profound effects on cell metabolism. Aberrant metabolism in cancer has recently received significant attention as a target to develop therapeutic agents in the treatment of cancer.1 As Tsc2-/- cells have lost the ability to respond to energy and growth factor deprivation, these cells are unable to properly down regulate cellular biosynthetic processes in response to metabolic stress, and are thus extremely sensitive to glucose deprivation-induced death.2 A central goal of this project is to explore the unique cell survival and metabolic properties of cells with Tsc1 or Tsc2 by screening for compounds that selectively target the Tsc2-/- MEFs by screening both Tsc2-/- and WT MEF cell lines. We hope to better understand these aspects of TSC physiology in order to exploit them for therapeutic benefit.
NCGC Acumen Assay Protocol Summary: For quantitative high throughput analysis of mTORC1 signaling, we developed a cell-based assay for immuno-fluorescence based detection of rpS6 phosphorylation on the Acumen Explorer that will be used a platform for the primary small molecule screen. Mouse embryonic fibroblasts (MEFs) are cultured in 1536-well plates using DMEM + 10% FBS. Twenty-four hrs after plating, test compounds (solubilized in DMSO) are delivered and incubated with the cells for 24 hrs at 37 degree Celsius. Following the incubation, media with compound is aspirated and the cells are fixed in 4% paraformaldehyde (PFA) containing PBS + 0.2% TX-100. Next, PFA is aspirated, cells are washed two times with PBS plus 0.2% TX-100 and the cells are blocked for 1 hr at room temperature (blocking buffer: LiCOR Blocking Buffer plus 0.2% TX-100). […] Cells are washed two times with PBS plus 0.2% TX-100, and stained with 10 uM propidium iodide (PI) for 20-25 minutes for cell number measurement (1:500 dilution of Hoescht staining is also added for IN Cell imaging). The plates are scanned on the Acumen Explorer laser scanning instrument (TTP Labtech) using the 488nm laser for simultaneous excitation of the Alexa-488 and PI. […] The normalized phospho-S6 staining is calculated as the ratio of the integrated Alexa 488 intensity divided by the integrated PI intensity for the single concentration rapamycin control (7.5 nM) and DMSO columns. […] Inhibition of the pathway is defined based on the normalized phospho-S6 intensity in rapamycin treated cells. Active cells are defined as those with a normalized phospho-S6 staining above this threshold, and each treatment is reported as the % positive cells in the well, where thresholds are defined by selecting wells with the highest and lowest signal and differentiating between the % non-active and % active populations. In addition to the pathway specific phospho-S6 endpoint, the number of PI stained cells from the Acumen is recorded as a measure of cell viability. The primary screen was performed with a MEF cell line in a defined genetic background, Tsc2-/-, p53-/- cell line stably transfected with an empty vector control (Tsc2-/- MEF).

Activity change, negative = inhibition, inactive:
Cc1c(C(=O)Nc2ccccc2Cl)sc2ncnc(N(C)C3CCCCC3)c12 -1.33%
CCc1ccc(CNC(=O)C2CCCN(c3nnc(C)c4c(C)n(-c5ccc(OC)cc5)nc34)C2)cc1 (stereo not given) -0.724%
Cc1ccc(N2CC(c3nnc(Cc4ccc(F)cc4)o3)CC2=O)cc1 (stereo not given) -1.37%
CC(CCc1ccccc1)NC(=O)Cn1c(=O)nc(-c2ccccc2F)c2cc(Cl)ccc21 (stereo not given) 7.65%
COc1ccc(Cn2ccnc2SCC(=O)NC2CCCC2)cc1 2.69%
Cc1oc(-c2ccccc2F)nc1CSCC(=O)NCc1ccccc1 1.95%
Cc1cccc(C)c1NC(=O)CSc1ncc2c(n1)-c1ccc(Cl)cc1N(Cc1ccccc1)S2(=O)=O 2.32%
CC(C)c1ccc(NC(=O)C2CCCN(S(=O)(=O)c3cccc4nsnc34)C2)cc1 (stereo not given) -14.2%
COc1ccc2c(c1)CC(C(=O)Nc1cccc(C)c1C)CO2 (stereo not given) -3.22%
COC(=O)c1ccc(NS(=O)(=O)c2c(C)nc3sccn3c2=O)cc1 3.59%
COc1cccc(-n2ccnc2SCC(=O)Nc2ccc(Cl)c(Cl)c2)c1 -19.3%
CCOC(=O)Cn1c(=O)n(C2CCCCC2)c2nc(-c3ccc(OCC)cc3)nc(C(N)=O)c21 -2.53%
COc1ccc(C2CC(=O)c3cnc4c(-c5ccccc5)c(C)nn4c3C2)cc1OC (stereo not given) -8.11%
CSc1ccc(CCNC(=O)c2ccc3c(c2)nc2n3CCCCC2)cc1 -12%
O=C(CSc1nccn1-c1ccc(Cl)cc1)Nc1cccc2ccccc12 -7.33%
Cc1c(-c2cccc(NC(=O)c3ccc(F)c(F)c3)c2)nc2ncccn12 -5.09%
Cc1nn(C)c2c1c(C(F)(F)F)cc(=O)n2C(C)C(=O)NCCc1ccc(Cl)cc1 (stereo not given) -3.83%
CCc1ccccc1NS(=O)(=O)c1ccc2oc(=O)c3ncn(C)c3c2c1 1.41%
N#Cc1ccc(C(=O)Nc2ccccc2-c2nc3ccccc3s2)c(F)c1 -1.56%
CCOC(=O)Cc1ccc(NC(=O)n2ncc3cc(Cl)ccc32)cc1 2.17%
CNS(=O)(=O)c1ccc(NC(=O)c2cnn3c(C(F)F)cc(-c4ccccc4)nc23)cc1 2.57%
CCOC(=O)c1cnc2c(Cl)c(Cl)ccc2c1NCCN1CCOCC1 4.31%
Cc1ccc(NC(=O)c2c(C)oc3ccc(O)c(CN4CCCC4)c23)c(C)c1 4.86%
CCc1ccc(NC(=O)C2CCCN(c3nn4cc(-c5ccc(OC)cc5)nc4s3)C2)cc1 (stereo not given) -5.81%
O=C(Nc1ccc(F)cc1Cl)C1CCN(c2ncnc3c2nc2n3CCCCC2)CC1 -3.2%
O=C(NCC(c1ccc2c(c1)OCO2)N1CCN(c2ccc(F)cc2)CC1)c1cccc([N+](=O)[O-])c1 (stereo not given) -2.41%
Cc1ccc2onc(CNC(=O)Nc3ccccc3C#N)c2c1 3.4%
COc1ccc(Nc2ncnc3c2c(-c2ccccc2)cn3-c2ccc(C)c(Cl)c2)cc1OC 9.58%
CCc1ccccc1NC(=O)CSc1ncccc1C(=O)O 7.26%
COc1cccc(CNC(=O)CCc2c(C)nc3c(c2C)c(=O)n(C)c(=O)n3C)c1 -5.69%
Cc1cccc(NC(=O)CSC2=Nc3ccccc3C3=NC(CCC(=O)NCc4ccc(F)cc4)C(=O)N23)c1 (stereo not given) 1.6%
CC(=O)c1ccc(NS(=O)(=O)c2cnc(N)nc2)cc1 -3.92%
CCOc1ccccc1NC(=O)Cc1csc(COc2cccc(C)c2)n1 -22.1%
O=C(NCCc1ccc(Cl)cc1)c1ccc(Cn2c(=O)[nH]c3ccccc3c2=O)cc1 -19.3%
CC(=O)c1cccc(Nc2ncnc3c2cnn3C)c1 12.3%
Cc1ccc(-n2c3c(c(=O)[nH]c2=O)C(NS(=O)(=O)c2ccc(C)cc2)(C(F)(F)F)C(=O)N3)cc1 (stereo not given) -13.2%
COc1ccc2[nH]cc(CCNC(=O)Nc3cccc(F)c3)c2c1 3.82%
CCOc1ccc(CN2C(=O)c3ccccc3Sc3ccc(C(=O)NCCc4ccccc4)cc32)cc1 -14.2%
COC(=O)c1c(NC(=O)COc2c(C)cccc2C)sc2c1CCCC2 9.43%
CC1CCN(S(=O)(=O)c2ccc(C(=O)Nc3nc4ccc(F)cc4s3)cc2)CC1 -6%
CCOc1ccccc1NC(=O)c1cc2cc(C)ccc2n1C -20.8%
CCc1ccc(NC(=O)C2CCC(CNS(=O)(=O)c3cccs3)CC2)cc1 (stereo not given) -2.45%
COc1cccc(CNC(=O)c2ccc3c(c2)N(C)C(=O)C2CCCCN32)c1 (stereo not given) -11.4%
COc1ccc(-c2nc(SCC(=O)Nc3ccc4c(c3)OCO4)c(-c3ccccc3)[nH]2)cc1 -4.52%
COc1ccccc1NC(=O)C1=C(C)Nc2nc(-c3ccco3)nn2C1c1ccccc1 (stereo not given) 3.56%
Cc1ccccc1NC(=O)c1c(NC(=O)c2ccncc2)sc2c1CCC(C(C)(C)C)C2 (stereo not given) -0.334%
COc1ccc(Nc2nc3c(S(=O)(=O)c4ccc(Br)cc4)nnn3c3ccsc23)c(OC)c1 -3.61%
CC1CCN(c2cc3c(cc2F)c(=O)c(S(=O)(=O)c2ccc(Cl)cc2)cn3C)CC1 -4.28%
CCOC(=O)c1c(NC(=O)c2cc(-c3ccc(Cl)cc3)on2)sc2c1CCCC2 -10.8%
CNS(=O)(=O)c1cc(-c2nn3c(C)nnc3c3ccccc23)ccc1C 5.04%
CC(C)CCNC(=O)c1cn(C)c2ccc(S(=O)(=O)N3CCCC3)cc2c1=O -10.8%
CCOc1ccc(-c2cc3nc(C4CCN(C(=O)OC(C)(C)C)CC4)c(C(=O)Nc4ccc(C)c(F)c4)cn3n2)cc1 -4.83%
CCn1cc(C(=O)N2CCN(c3cc(Cl)ccc3C)CC2)c(=O)c2cc(S(=O)(=O)N3CCOCC3)ccc21 -5.39%
CCC(=O)N1CCc2cc(Br)cc(S(=O)(=O)N3CCC(C(=O)N(CC)CC)CC3)c21 2.88%
COc1ccc(OC)c(CNc2ncnc3onc(C)c23)c1 -8.01%
CCc1cccc(C)c1NC(=O)c1cc(S(=O)(=O)N2CCN(c3ccccc3)CC2)ccc1F 9.39%
COc1ccc2c(c1)CC(C(=O)Nc1cc(OC)c(OC)c(OC)c1)CO2 (stereo not given) -20.8%
Cc1cccc(CCNC(=O)CCc2c(C)nc3c(c(C)nn3-c3ccccc3)c2C)c1 -9.05%
CN1C(=O)c2ccccc2Sc2ccc(NC(=O)N3CCN(c4cccc(Cl)c4)CC3)cc21 -7.47%
CN(C)c1ccc(C(=O)NCc2ccc3c(c2)CCN3C(=O)c2ccc(Cl)cc2)cc1 -3.18%
Clc1ccc(CNc2ncnc3onc(-c4ccc(Cl)cc4)c23)cc1 -17.2%
COc1ccc(C(=O)NCc2ccc3c(c2)CCN3C(=O)c2ccc(Cl)cc2)c(OC)c1 -3.36%
COc1cc(OC)cc(C(=O)Nc2cccc(-c3cn4ccsc4n3)c2)c1 -0.476%
CCOc1ccc(NC(=O)CSc2cn(CC(=O)N3CCOCC3)c3ccccc23)cc1 -9.25%
CC(C)OCCCn1c(SCc2ccccc2Cl)nc2c(sc3ccccc32)c1=O 1.67%
CCC(Cc1ccccc1)NC(=O)c1cccc(Nc2nc3ccccc3nc2-n2nc(C)cc2C)c1 (stereo not given) 3.15%
CCC1CN(C(=O)N2CCC(C(=O)NCCC3=CCCCC3)CC2)c2ccccc2O1 (stereo not given) 5.23%
CCC1CCCCN1C(=O)Cn1c(=O)n(-c2ccc(Cl)c(Cl)c2)c(=O)c2c(C)c(C(=O)N(C)C)sc21 (stereo not given) -1.18%
COc1ccc(CCNC(=O)c2cc(=O)[nH]c3ccc(S(=O)(=O)N4CCCCC4)cc23)cc1OC 4.24%
CCOc1ccc(NC(=O)C2CCC(CNS(=O)(=O)c3ccc4c(c3)CCCC(=O)N4)CC2)cc1 (stereo not given) 0.383%
CC(=O)Nc1c(C)nn(-c2ccccc2)c1N1CCC(C(=O)NCc2cccc(F)c2)CC1 -10.1%
CCN(c1cc(C)cc(C)c1)S(=O)(=O)c1nnc(NC(=O)c2ccccc2C)s1 3.55%
Cc1ccc(N(CC(=O)N2CCN(c3cccc(C)c3C)CC2)S(=O)(=O)c2c(C)nn(C)c2C)cc1 -9.72%
Cn1nc(C(=O)NCc2ccccc2Cl)c2c1-c1ccccc1SC2 0.328%
CCN(CC)c1nn2c(=O)c(C(=O)NCc3ccccc3Br)cnc2s1 -7.22%
O=C(NCCc1ccc(Cl)cc1)c1cc2c(s1)-c1ccccc1OC2 -0.98%
COc1cc(OC)c2c(C)c(CC(=O)NCc3ccccc3OC)c(=O)oc2c1 1.88%
CCOc1ccc(NC(=O)N2CCN(C(=O)c3nsc4ccccc34)CC2)cc1 -12.1%
Cc1cccc(NC(=O)c2ccc(Cn3nc(N4CCN(c5ccccc5)CC4)ccc3=O)o2)c1C -1.46%
O=S(=O)(Nc1cccc(-c2ccc(N3CCOCC3)nn2)c1)c1ccc(F)c(C(F)(F)F)c1 -6.96%
COc1ccc(CCNC(=O)c2ccc3c(c2)CCN3S(=O)(=O)c2ccc(C)cc2)cc1OC -3.8%
COc1ccc(-c2cc(C(F)(F)F)nc(SCC(=O)N(C)Cc3ccccc3)n2)cc1 -1.41%
Cc1ccc(NC(=O)CSc2nccn2-c2ccccc2)cc1 -2.69%
O=C(COc1ccccc1Cl)Nc1ccc2nc(SCC(=O)N3CCOCC3)sc2c1 -0.348%
O=S(=O)(c1ccc2nc(Nc3ccc(Br)cc3F)ccc2c1)N1CCCCC1 1.62%
CCSc1nc2sc3c(c2c(=O)n1-c1ccc(C)c(Cl)c1)CCN(C(C)=O)C3 -18.5%
Cc1cc(=O)n(Cc2ccc(Br)cc2F)c2c1c(C)nn2-c1ccccc1 4.92%
Cc1ccc(NC(=O)Cn2c(=O)n(CCCCC(=O)NCCc3ccccc3)c(=O)c3ccccc32)cc1 -1.03%
Cc1ccccc1Cn1cc(S(=O)(=O)c2ccc(F)cc2)c(=O)c2cc3c(cc21)OCO3 -2.43%
O=C(CCNS(=O)(=O)c1ccc2c(c1)CCCC(=O)N2)NCc1ccc(Cl)cc1 -20.2%
Cc1cc(Cl)ccc1OCCSc1nnc(-c2cccs2)o1 -0.506%
CCc1nccn1S(=O)(=O)c1cc(Br)ccc1Br 2.28%
COC(=O)c1ccc2c(c1)N(CC(=O)Nc1ccc(C)cc1Cl)C(=O)c1ccccc1S2 0%
COc1ccc(C)cc1NC(=O)CN(C)S(=O)(=O)c1ccc2[nH]c(=O)oc2c1 -9.06%
COC(=O)c1sccc1S(=O)(=O)N(CC(=O)Nc1cc(F)ccc1F)c1ccc(C)c(C)c1 -0.18%
